Experimental data from the supplement of paper PMC10369915.
Some of the results follow. Rule as the data show it: active = 3.2 or more and inactive = the rest. Only a few entries rise above the background.

What was measured:
Assay in all cases: enrichment score (SH2-bound / input frequency) (ratio); bacterial display of known human phosphotyrosine sites (pTyr-Var adds point mutants) read by sequencing; higher = stronger binding; tyrosines were phosphorylated by kinases first
Settings in all cases: peptide library: pTyr-Var
SHP2 C-SH2 domain E139D = target: SHP2 C-SH2 domain E139D
[1] = target: SHP2 C-SH2 domain wild-type
SHP2 N-SH2 domain L43F = target: SHP2 N-SH2 domain L43F
SHP2 N-SH2 domain T42A = target: SHP2 N-SH2 domain T42A
SHP2 N-SH2 domain T52S = target: SHP2 N-SH2 domain T52S
[2] = target: SHP2 N-SH2 domain wild-type

Measured: enrichment score
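Also: displayed peptides selected on beads carrying the immobilized SH2 domain, with library peptides lacking any tyrosine serving as negative controls.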

RGRSTYYWPRP [GAGE12J_Y9]
inactive: SHP2 C-SH2 domain E139D 0.167 | [1] 0.139 | SHP2 N-SH2 domain L43F 0.224 | SHP2 N-SH2 domain T42A 0.232 | SHP2 N-SH2 domain T52S 0.208 | [2] 0.389

FIPSNYVAEDR [FRK_Y104_YF]
inactive: SHP2 C-SH2 domain E139D 0.948 | [1] 0.71 | SHP2 N-SH2 domain L43F 0.821 | SHP2 N-SH2 domain T42A 0.58 | SHP2 N-SH2 domain T52S 0.69 | [2] 0.805

ASFGPNTRVQS [FOXL2_Y258_Y258N_YF]
inactive: SHP2 C-SH2 domain E139D 0.748 | [1] 0.723 | SHP2 N-SH2 domain L43F 0.559 | SHP2 N-SH2 domain T42A 0.384 | SHP2 N-SH2 domain T52S 0.521 | [2] 0.644

TLSGIYQFSIA [FOXL2_Y81_I84S_YF]
inactive: SHP2 C-SH2 domain E139D 1.41 | [1] 1.65 | SHP2 N-SH2 domain L43F 1.53 | SHP2 N-SH2 domain T42A 1.93 | SHP2 N-SH2 domain T52S 1.66 | [2] 1.61

YGMSSYITRED [FNDC3B_Y180_T179S]
inactive: SHP2 C-SH2 domain E139D 0.941 | [1] 0.914 | SHP2 N-SH2 domain L43F 1.01 | SHP2 N-SH2 domain T42A 0.74 | SHP2 N-SH2 domain T52S 0.826 | [2] 0.97

GGGGGYNRSSG [FUS_Y232]
inactive: SHP2 C-SH2 domain E139D 0.471 | [1] 0.52 | SHP2 N-SH2 domain L43F 0.466 | SHP2 N-SH2 domain T42A 0.418 | SHP2 N-SH2 domain T52S 0.432 | [2] 0.466

SAVTGYRVNVI [FN1_Y937_D940N]
inactive: SHP2 C-SH2 domain E139D 1 | [1] 0.874 | SHP2 N-SH2 domain L43F 0.847 | SHP2 N-SH2 domain T42A 0.937 | SHP2 N-SH2 domain T52S 0.975 | [2] 0.903

LDPDSYNKFEN [FOXC1_Y159_M161K]
inactive: SHP2 C-SH2 domain E139D 0.265 | [1] 0.5 | SHP2 N-SH2 domain L43F 0.713 | SHP2 N-SH2 domain T42A 0.333 | SHP2 N-SH2 domain T52S 0.916 | [2] 0.567

RGERPYGGGGG [FUS_Y526_R522G]
inactive: SHP2 C-SH2 domain E139D 0.663 | [1] 0.482 | SHP2 N-SH2 domain L43F 0.654 | SHP2 N-SH2 domain T42A 0.784 | SHP2 N-SH2 domain T52S 0.77 | [2] 0.718

FCIDHYLGKEM [G6PD_Y202_R198C_YF]
inactive: SHP2 C-SH2 domain E139D 1.16 | [1] 1.22 | SHP2 N-SH2 domain L43F 1.22 | SHP2 N-SH2 domain T42A 1.23 | SHP2 N-SH2 domain T52S 1.07 | [2] 1.44

RNDLDYMDSRR [GAA_Y407_W402R]
inactive: SHP2 C-SH2 domain E139D 0.558 | [1] 0.642 | SHP2 N-SH2 domain L43F 0.617 | SHP2 N-SH2 domain T42A 0.838 | SHP2 N-SH2 domain T52S 0.831 | [2] 0.481

TLSGTYQYIIA [FOXL2_Y81_I80T]
active: SHP2 N-SH2 domain T42A 5.52
inactive: SHP2 C-SH2 domain E139D 1.17 | [1] 2.02 | SHP2 N-SH2 domain L43F 1.75 | SHP2 N-SH2 domain T52S 1.93 | [2] 1.05

FGMSSYITRED [FNDC3B_Y180_T179S_YF]
inactive: SHP2 C-SH2 domain E139D 1.02 | [1] 0.864 | SHP2 N-SH2 domain L43F 0.813 | SHP2 N-SH2 domain T42A 0.796 | SHP2 N-SH2 domain T52S 0.748 | [2] 0.845

SGIFQYSIAKF [FOXL2_Y83_I84S_YF]
inactive: SHP2 C-SH2 domain E139D 1.95 | [1] 1.79 | SHP2 N-SH2 domain T42A 2.52 | [2] 1.84
active: SHP2 N-SH2 domain L43F 3.74 | SHP2 N-SH2 domain T52S 4.87

TLLSAYQIPRT [GAB2_Y324_P320L]
inactive: SHP2 C-SH2 domain E139D 0.992 | [1] 1.03 | SHP2 N-SH2 domain L43F 1.14 | SHP2 N-SH2 domain T42A 0.968 | SHP2 N-SH2 domain T52S 1.08 | [2] 1.19

HPWPQYTTRAP [FNDC1_Y1281]
inactive: SHP2 C-SH2 domain E139D 0.963 | [1] 0.77 | SHP2 N-SH2 domain L43F 0.811 | SHP2 N-SH2 domain T42A 0.788 | SHP2 N-SH2 domain T52S 0.841 | [2] 0.782

AGADGYGYLAP [FOXL2_Y186]
inactive: SHP2 C-SH2 domain E139D 0.62 | [1] 0.713 | SHP2 N-SH2 domain L43F 0.642 | SHP2 N-SH2 domain T42A 0.585 | SHP2 N-SH2 domain T52S 0.702 | [2] 0.669

KLPDAYERLIL [G6PD_Y437]
inactive: SHP2 C-SH2 domain E139D 1.06 | [1] 1.05 | SHP2 N-SH2 domain L43F 0.918 | SHP2 N-SH2 domain T42A 0.93 | SHP2 N-SH2 domain T52S 0.966 | [2] 0.863

YGMSTYITRED [FNDC3B_Y180]
inactive: SHP2 C-SH2 domain E139D 0.88 | [1] 0.974 | SHP2 N-SH2 domain L43F 0.813 | SHP2 N-SH2 domain T42A 0.822 | SHP2 N-SH2 domain T52S 0.848 | [2] 1.03

RRERPYGGGGG [FUS_Y526]
inactive: SHP2 C-SH2 domain E139D 0.151 | [1] 0.171 | SHP2 N-SH2 domain L43F 0.252 | SHP2 N-SH2 domain T42A 0.421 | SHP2 N-SH2 domain T52S 0.153 | [2] 0.265

LVRPPYSFLAL [FOXI1_Y126_S129L_YF]
inactive: SHP2 C-SH2 domain E139D 0.611 | [1] 0.659 | SHP2 N-SH2 domain L43F 0.704 | SHP2 N-SH2 domain T42A 0.732 | SHP2 N-SH2 domain T52S 0.695 | [2] 0.728

GGGCGYNRSSG [FUS_Y232_G230C]
inactive: SHP2 C-SH2 domain E139D 0.634 | [1] 0.774 | SHP2 N-SH2 domain L43F 0.617 | SHP2 N-SH2 domain T42A 0.601 | SHP2 N-SH2 domain T52S 0.658 | [2] 0.771

YRIDHYLGKEM [G6PD_Y202]
inactive: SHP2 C-SH2 domain E139D 1.43 | [1] 1 | SHP2 N-SH2 domain L43F 1.1 | SHP2 N-SH2 domain T42A 0.854 | SHP2 N-SH2 domain T52S 1.04 | [2] 0.862

LADKPYTFEFF [FXN_Y118_D122Y_YF]
inactive: SHP2 C-SH2 domain E139D 0.646 | [1] 0.517 | SHP2 N-SH2 domain L43F 0.604 | SHP2 N-SH2 domain T42A 0.71 | SHP2 N-SH2 domain T52S 0.91 | [2] 0.667

EKQLLYLENKT [FRK_Y132_S133L]
inactive: SHP2 C-SH2 domain E139D 0.873 | [1] 0.914 | SHP2 N-SH2 domain L43F 0.912 | SHP2 N-SH2 domain T42A 0.822 | SHP2 N-SH2 domain T52S 0.779 | [2] 1.3

TLSGIYQFIIA [FOXL2_Y81_YF]
active: SHP2 C-SH2 domain E139D 3.31
inactive: [1] 2.82 | SHP2 N-SH2 domain L43F 2.9 | SHP2 N-SH2 domain T42A 2.03 | SHP2 N-SH2 domain T52S 2.4 | [2] 2.67

EIIPFYGMSTY [FNDC3B_Y175]
inactive: SHP2 C-SH2 domain E139D 0.881 | [1] 0.945 | SHP2 N-SH2 domain L43F 0.827 | SHP2 N-SH2 domain T42A 0.917 | SHP2 N-SH2 domain T52S 0.947 | [2] 0.956

ASYGPNTRVQS [FOXL2_Y258_Y258N]
inactive: SHP2 C-SH2 domain E139D 0.604 | [1] 0.508 | SHP2 N-SH2 domain L43F 0.453 | SHP2 N-SH2 domain T42A 0.58 | SHP2 N-SH2 domain T52S 0.572 | [2] 0.519

GRSTFYWPSPR [GAGE12J_Y10_R13S_YF]
inactive: SHP2 C-SH2 domain E139D 1.18 | [1] 1.18 | SHP2 N-SH2 domain L43F 1.43 | SHP2 N-SH2 domain T42A 1.1 | SHP2 N-SH2 domain T52S 1.25 | [2] 1.13

PEAALYGRFTI [FYN_Y440]
inactive: SHP2 C-SH2 domain E139D 0.623 | [1] 0.697 | SHP2 N-SH2 domain L43F 1.35 | SHP2 N-SH2 domain T42A 0.547 | SHP2 N-SH2 domain T52S 0.804 | [2] 1.16

FARNCYVAGQY [G6PD_Y107_S106C]
inactive: SHP2 C-SH2 domain E139D 0.783 | [1] 0.887 | SHP2 N-SH2 domain L43F 0.713 | SHP2 N-SH2 domain T42A 0.92 | SHP2 N-SH2 domain T52S 0.634 | [2] 1.13

ERFAFYRDSPR [FOXE3_Y108]
inactive: SHP2 C-SH2 domain E139D 1.24 | [1] 0.757 | SHP2 N-SH2 domain L43F 0.786 | SHP2 N-SH2 domain T42A 0.83 | SHP2 N-SH2 domain T52S 0.799 | [2] 0.943

ASYGPYTRVQS [FOXL2_Y258]
inactive: SHP2 C-SH2 domain E139D 0.871 | [1] 2.3 | SHP2 N-SH2 domain L43F 0.79 | SHP2 N-SH2 domain T42A 1.52 | SHP2 N-SH2 domain T52S 0.803 | [2] 0.678

EATKGYPDDPT [G6PD_Y322_L323P]
inactive: SHP2 C-SH2 domain E139D 0.414 | [1] 0.471 | SHP2 N-SH2 domain L43F 0.422 | SHP2 N-SH2 domain T42A 0.439 | SHP2 N-SH2 domain T52S 0.599 | [2] 0.545

RPPFTYATLIH [FOXP3_Y342_R347H]
active: SHP2 C-SH2 domain E139D 3.73 | [1] 5.24 | SHP2 N-SH2 domain L43F 4.89 | SHP2 N-SH2 domain T42A 12.4 | SHP2 N-SH2 domain T52S 6.25
inactive: [2] 2.45

TLSGIYQYSIA [FOXL2_Y81_I84S]
active: SHP2 N-SH2 domain L43F 3.5 | SHP2 N-SH2 domain T52S 3.26
inactive: SHP2 C-SH2 domain E139D 1.33 | [1] 1.73 | SHP2 N-SH2 domain T42A 1.5 | [2] 1.36

RGRSTYYWPSP [GAGE12J_Y9_R13S]
inactive: SHP2 C-SH2 domain E139D 0.234 | [1] 0.294 | SHP2 N-SH2 domain L43F 0.176 | SHP2 N-SH2 domain T42A 0.194 | SHP2 N-SH2 domain T52S 0.135 | [2] 0.34
